The list shows a part of the results.
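Further: jurkat cells carrying a lentiviral library of mutant zinc finger degrons fused to EGFP plus mCherry, mCherry+ cells FACS sorted, degron abundance counted by next-generation sequencing.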

For this experiment, the target named is no compound (DMSO). As to the kind of experiment: log2 fold change of degron read counts, EGFP-low vs EGFP+ sorted cells; higher = lower degron-EGFP level without compound (poor expression or instability). To be noted: compound: DMSO control; 18 h.
For LGCEICGFCCTQKGNLLRHIKL, the “log2 fold change of degron read counts” value is 0.723.

In the case of FECEVCGAVFTQKGNLLRHIKL, the “log2 fold change of degron read counts” value is -1.01.

Turning to FACNQCGRPFTQKGNLLRHIKL, the “log2 fold change of degron read counts” value amounted to 0.0242.

On to FACNICGACFTQKGNLLRHIKL, for which the “log2 fold change of degron read counts” value is -0.206.

With FFCSVCGHQFTQKGNLLRHIKL, the “log2 fold change of degron read counts” value amounted to 0.373.

Turning to LVCEICGFWCTQKGNLLRHIKL, the “log2 fold change of degron read counts” value was 0.344.

Consider FGCEICGHGFTQKGNLLRHIKL, for which the “log2 fold change of degron read counts” value was -0.451.

As for FDCPICGRSFTQKGNLLRHIKL, the “log2 fold change of degron read counts” value was -0.996.

Consider LHCEICGFLCTQKGNLLRHIKL, for which the “log2 fold change of degron read counts” value is 1.02.

As to FDCNVCGACFTQKGNLLRHIKL, the “log2 fold change of degron read counts” value is -0.568.

Regarding FICNICGAWFTQKGNLLRHIKL, the “log2 fold change of degron read counts” value was 0.0784.

Regarding FACDVCGADFTQKGNLLRHIKL, the “log2 fold change of degron read counts” value was -1.38.

Regarding FDCDQCGASFTQKGNLLRHIKL, the “log2 fold change of degron read counts” value is -3.58.

In the case of FDCNVCGAYFTQKGNLLRHIKL, the “log2 fold change of degron read counts” value came to 0.718.

Take FFCEVCGASFTQKGNLLRHIKL: the “log2 fold change of degron read counts” value is -1.31.

In the case of FLCNVCGAFFTQKGNLLRHIKL, the “log2 fold change of degron read counts” value worked out at 0.411.

Take FSCPICGRLFTQKGNLLRHIKL: the “log2 fold change of degron read counts” value was -0.455.

As to FRCNQCGAWFTQKGNLLRHIKL, the “log2 fold change of degron read counts” value was determined as 0.689.

In the case of FWCNQCGARFTQKGNLLRHIKL, the “log2 fold change of degron read counts” value came out at 0.3.

Turning to FQCNICGAEFTQKGNLLRHIKL, the “log2 fold change of degron read counts” value is -1.23.

As to FNCNVCGANFTQKGNLLRHIKL, the “log2 fold change of degron read counts” value is -1.42.

Consider FTCPICGRRFTQKGNLLRHIKL, for which the “log2 fold change of degron read counts” value is -0.753.

In the case of FVCEQCGAKFTQKGNLLRHIKL, the “log2 fold change of degron read counts” value was -1.47.

FWCPVCGAIFTQKGNLLRHIKL: the “log2 fold change of degron read counts” value is 1.39.

Consider FCCNQCGRDFTQKGNLLRHIKL, for which the “log2 fold change of degron read counts” value was -0.0854.

For the sequence LCCEICGFLCTQKGNLLRHIKL, the “log2 fold change of degron read counts” value stood at 0.186.

Turning to FTCDQCGAQFTQKGNLLRHIKL, the “log2 fold change of degron read counts” value is -0.908.

For FVCEVCGAVFTQKGNLLRHIKL, the “log2 fold change of degron read counts” value was -1.21.

Turning to FNCSVCGHKFTQKGNLLRHIKL, the “log2 fold change of degron read counts” value was -0.505.

In the case of FECNQCGHCFTQKGNLLRHIKL, the “log2 fold change of degron read counts” value is -0.197.

Regarding FGCPICGHWFTQKGNLLRHIKL, the “log2 fold change of degron read counts” value turned out to be 0.686.

On to FKCNVCGASFTQKGNLLRHIKL, for which the “log2 fold change of degron read counts” value was -1.47.

On to FCCPICGRLFTQKGNLLRHIKL, for which the “log2 fold change of degron read counts” value was 0.239.

As to FKCDVCGAEFTQKGNLLRHIKL, the “log2 fold change of degron read counts” value is -3.38.

For the sequence FACEICGRHFTQKGNLLRHIKL, the “log2 fold change of degron read counts” value was -0.856.

As to LNCNQCGFCCTQKGNLLRHIKL, the “log2 fold change of degron read counts” value was 0.209.

As to FTCEICGHPFTQKGNLLRHIKL, the “log2 fold change of degron read counts” value is -0.883.

For FMCDQCGAGFTQKGNLLRHIKL, the “log2 fold change of degron read counts” value was -2.02.

As to FECEQCGAKFTQKGNLLRHIKL, the “log2 fold change of degron read counts” value is -1.54.

On to FQCEICGRMFTQKGNLLRHIKL, for which the “log2 fold change of degron read counts” value is -2.01.

With FFCNQCGHNFTQKGNLLRHIKL, the “log2 fold change of degron read counts” value amounted to 0.448.

Consider FRCPQCGAMFTQKGNLLRHIKL, for which the “log2 fold change of degron read counts” value was -0.373.

Take FACNQCGHSFTQKGNLLRHIKL: the “log2 fold change of degron read counts” value was -0.865.

As for FLCPICGRYFTQKGNLLRHIKL, the “log2 fold change of degron read counts” value worked out at 0.501.

On to FACDICGAHFTQKGNLLRHIKL, for which the “log2 fold change of degron read counts” value was -1.88.

In the case of FWCNQCGHKFTQKGNLLRHIKL, the “log2 fold change of degron read counts” value was 0.692.

For FRCSVCGHLFTQKGNLLRHIKL, the “log2 fold change of degron read counts” value is -0.295.

Consider FTCPICGHGFTQKGNLLRHIKL, for which the “log2 fold change of degron read counts” value is -0.407.

FSCEICGRKFTQKGNLLRHIKL: the “log2 fold change of degron read counts” value is -1.78.

For the sequence FFCPICGRAFTQKGNLLRHIKL, the “log2 fold change of degron read counts” value was -0.957.

For the origin of these results see the supplement of paper PMC12645437, “Orthogonal IMiD-Degron Pairs Induce Selective Protein Degradation in Cells” (ACS Chemical Biology, 2025).
